The results in this text go back to ChEMBL document CHEMBL4888484, “Replenishing the malaria drug discovery pipeline: Screening and hit evaluation of the MMV Hit Generation Library 1 (HGL1) against asexual blood stage Plasmodium falciparum ,using a nano luciferase reporter read-out” (2022).

In general, % Inhibition refers to the relative decrease from the control value, in per cent.

Molecules are shown by their SMILES. Out of some 150,000 compounds screened, about 540 (0.36%) showed an effect of 50% or more. This is one part of the list.

The subject of the assay is Plasmodium falciparum. The experiment in a line: Primary screen in NF54 nanoGlo assay, in single point, at 2uM, 72h; a lower Z score goes with more inhibition. The assay is classed as functional, Erythrocyte. Particulars: timepoint 72 hour.
As to `C[C@@H](C(=O)NC1CC1)S(=O)(=O)c1ccc2ccccc2c1`, the “% Inhibition” value is listed as -3% and the Z score is 0.51.

Regarding `c1cn(CCCNc2nc(N3CCOCC3)c3nn[nH]c3n2)cn1`, the “% Inhibition” value is given as -8% and the Z score is listed as 1.25.

For the compound `N#Cc1ccc2c(c1)C1OCCCC1C(c1cccc(O)c1)N2` (stereo unspecified), the “% Inhibition” value is recorded as -16% and the Z score stood at 1.43.

Regarding `CCC1CCC(C(=O)NCC(=O)N2CCn3cncc3C2)CC1` (stereo unspecified), the “% Inhibition” value was -22% and the Z score stood at 2.8.

Turning to `c1cncc(-c2nnc3n2CCNC3)c1`, the “% Inhibition” value was -8% and the Z score worked out at 1.07.

On to `CC[C@](C)(O)CNC(=O)c1cc(Cl)ccc1O`, for which the “% Inhibition” value was determined as 7% and the Z score is given as -1.12.

As for `CCOC(CCn1cc(CNC(=O)C(CC)CC)nn1)OCC`, the “% Inhibition” value is -10% and the Z score was 1.56.

For `Cc1ccc(-c2csc(-n3nc(C(F)(F)F)cc3-c3ccco3)n2)cc1`, the “% Inhibition” value is -32% and the Z score turned out to be 3.77.

On to `C=C(C)Cn1c(CC(C)(C)O)nnc1N1CCN(C(C)=O)CC1`, for which the “% Inhibition” value is -7% and the Z score is reported as 1.38.

With `COc1cccc(N2CCN(C(=O)c3ccc4c(c3)N(CC(=O)NC(C)C)C(=O)CO4)CC2)c1`, the “% Inhibition” value is recorded as -1% and the Z score is on record as 0.11.

With `Fc1cncc(NCc2cscn2)c1`, the “% Inhibition” value is -10% and the Z score is recorded as 1.98.

Regarding `O=C(c1cc[nH]n1)N1Cc2ccccc2-c2ccccc21`, the “% Inhibition” value was 5% and the Z score was -0.74.

For `NCC[C@H](NCc1cn(C2CCCC2)nc1-c1ccccn1)C(F)F`, the “% Inhibition” value is 5% and the Z score is given as -1.03.

As to `C[C@@H](Cc1ccc(Br)cc1F)NS(C)(=O)=O`, the “% Inhibition” value is given as 2% and the Z score is -0.36.

Take `O=C(NCc1nn(C2CCCC2)c(=O)c2ccccc12)c1ccc(F)cc1F`: the “% Inhibition” value is -20% and the Z score was 2.58.

In the case of `CC(C)(C)OC(=O)N1CC[C@H]1c1noc(Cn2ccccc2=O)n1`, the “% Inhibition” value was -9% and the Z score worked out at 0.91.

Take `COc1c(F)ccc(-c2cn(CCS(C)(=O)=O)nn2)c1F`: the “% Inhibition” value was determined as 5% and the Z score was -0.69.

Turning to `CCc1nc(N2CC[C@@H](CO)[C@@H](O)C2)ncc1C`, the “% Inhibition” value is -14% and the Z score worked out at 1.4.

As for `Cc1ccc(C)c(S(=O)(=O)N2CCc3cc(S(=O)(=O)NC4CCCC4)ccc32)c1`, the “% Inhibition” value is listed as -5% and the Z score was determined as 0.69.

Consider `CCOc1ccc(CN2C[C@@H](CO)[C@H](NC(=O)C3CCC3)C2)cc1`, for which the “% Inhibition” value is reported as -16% and the Z score was 2.35.

`O=C(c1noc2ccc(S(=O)(=O)NC3CCCCC3)cc12)N1CCCC1`: the “% Inhibition” value is on record as -5% and the Z score came out at 0.72.

For `O=C(CN1CCN(c2ccc(C3CC3)nn2)CC1)Nc1ccc2c(c1)OCCO2`, the “% Inhibition” value amounted to 3% and the Z score is -0.46.

Consider `CCN(CC)CCOc1ccc(Cl)cc1Cl`, for which the “% Inhibition” value is reported as -15% and the Z score is listed as 2.87.

Take `COc1ccc(C(=O)O)nc1-c1cccc(C(=O)N2C[C@@H](C)O[C@@H](C)C2)c1`: the “% Inhibition” value is 7% and the Z score is given as -1.36.

Turning to `C[C@@H](NC(=O)N1CC(F)C1)c1ccccc1`, the “% Inhibition” value stood at 4% and the Z score is on record as -0.51.

For the compound `Cc1cccc(Cl)c1NC(=O)N1CCC(n2cc([C@H](C)O)nn2)CC1`, the “% Inhibition” value is recorded as -14% and the Z score was 1.81.

Turning to `O=C(NCCn1c(=O)[nH]c2ccsc2c1=O)OC1CCCC1`, the “% Inhibition” value was -5% and the Z score was determined as 1.02.

For the compound `Cc1nc(O)c(Cl)c(N2CCC(CCN3CCCC3)CC2)n1`, the “% Inhibition” value is -20% and the Z score is given as 2.28.

Turning to `CCCc1[nH]nc(-c2ccc(C(F)(F)F)cc2)c1NC(=O)C1CCCC1`, the “% Inhibition” value turned out to be 4% and the Z score is -0.75.

With `CNC(=O)[C@H](Cc1c[nH]cn1)NS(=O)(=O)CCC1CCCCC1`, the “% Inhibition” value stood at 3% and the Z score is -0.61.

For `O=C(CN1C(=O)COc2ccc(Cl)cc21)N1CCCc2ccccc21`, the “% Inhibition” value was -3% and the Z score is on record as 0.39.

`OCc1cccc(-n2ccnc2-c2ccc3c(c2)OCCO3)c1`: the “% Inhibition” value is -3% and the Z score was 0.31.

For `O=C1CC[C@H](C(=O)N2CCCCO2)CN1CCc1ccccn1`, the “% Inhibition” value is given as 2% and the Z score was -0.26.

In the case of `CC(C)(C)c1ccc(=O)n(CN2CCN(C(=O)C3CCCC3)CC2)n1`, the “% Inhibition” value came to 2% and the Z score is given as -0.15.

Regarding `Cc1nc(O)cc(Cn2cnc(-c3ccccc3)c2[C@H]2CCOC2)n1`, the “% Inhibition” value was -10% and the Z score amounted to 1.37.

For the compound `O=C(CCc1ccc2c(c1)OCCO2)N1CCCC1`, the “% Inhibition” value is -3% and the Z score was 0.45.

For the compound `Cc1ccc(C(=O)NCCC(C)C)cc1-n1nnc2cccnc21`, the “% Inhibition” value is -18% and the Z score was determined as 3.46.

On to `CC(C)c1ccc(C(=O)N[C@@H]2CCCC[C@H]2O)c(O)c1`, for which the “% Inhibition” value is given as -7% and the Z score is given as 1.06.

As for `NC(=O)c1c(N)sc2c1CCN(Cc1ccccc1)C2`, the “% Inhibition” value was determined as 2% and the Z score is -0.33.

In the case of `CO[C@@H](Cc1ccccc1)CS(=O)(=O)N(C)c1ccn(C)n1`, the “% Inhibition” value is -11% and the Z score is recorded as 1.19.

With `CN1CCC(N(Cc2ccco2)C(=O)c2ccc(O)cc2F)CC1`, the “% Inhibition” value was -11% and the Z score came to 1.13.

On to `COc1ccc(-c2c3c(=O)[nH]n(C(C)C)c3nc3[nH]c(=O)n(C)c23)cc1OC`, for which the “% Inhibition” value is recorded as -38% and the Z score was 4.45.

Turning to `Cc1cc(C(=O)N(Cc2ccccc2)Cc2ccccc2)n(C)n1`, the “% Inhibition” value is listed as -6% and the Z score worked out at 0.98.
